Data on one molecule can be found in US9803019B2, “Carrier immunoglobulins and uses thereof” (Amgen Inc., priority 2010, dated 2017).

Data set [1] is described as follows: Thermoresistance by DSC (MicroCal VP-DSC). The data set is classed as physicochemical. Particulars: 0.5 mg/ml in 10 mM sodium acetate, 9% sucrose, pH 5.0; 20° C. to 95° C. at 1° C. per minute. The procedure:
The protein concentration was 0.5 mg/ml in 10 mM sodium acetate, 9% sucrose, pH 5.0.
Antibodies were also analyzed for thermoresistance by DSC using a MicroCal VP-DSC where the samples were heated from 20° C. to 95° C. at a rate of 1° C. per minute. DSC directly measures heat changes that occur in biomolecules during controlled increase or decrease in temperature, making it possible to study materials in their native state.
DSC measures the enthalpy (ΔH) of unfolding due to heat denaturation. A biomolecule in solution is in equilibrium between the native (folded) conformation and its denatured (unfolded) state. […] DSC is also used to determine the change in heat capacity (ΔCp) of denaturation (see, FIG. 11). The proteins were incubated at 0.5 mg/ml in 10 mM sodium acetate, 9% sucrose, pH 5.0 (FIG. 11).
The antibodies were analyzed for thermoresistance by DSC using a MicroCal VP-DSC where the samples were heated from 20° C. to 95° C. at a rate of 1° C. per minute. The proteins were at 0.5 mg/ml in 10 mM sodium acetate, 9% sucrose, pH 5.0 (FIG. 28).

Data set [2] is described as follows: Cynomolgus PK, single IV bolus (Example 4). It is filed as in vivo, cynomolgus monkeys (Macaca fascicularis). The following applies: single IV bolus 1 mg/kg or 10 mg/kg. On the procedure: Serum samples were collected pre-dose and at 0.25, 0.5, 1, 4, 8, 12, 24, 48, 72, 96, 120, 144, 168, 192, 216, 240, 264, 288, 312, 360, 408, 456, 504, 552, 600, 648 and 672 hours after administration. Samples were assayed for 16435 antibody levels using an anti-IgG sandwich ELISA.
The pharmacokinetic profile of the 16435 antibody was determined in cynomolgus monkeys (Macaca fascicularis) to assess the in vivo parameters. Briefly, a single IV bolus dose of 16435, either 1 mg/kg or 10 mg/kg, was administered to mature male cynomolgus monkeys (n=2 per group). Serum samples were collected pre-dose and at timepoints 0.25, 0.5, 1, 4, 8, 12, 24, 48, 72, 96, 120, 144, 168, 192, 216, 240, 264, 288, 312, 360, 408, 456, 504, 552, 600, 648 and 672 hours after antibody administration. Samples were assayed for 16435 antibody levels by using an anti-IgG sandwich ELISA. Time concentration data were analyzed using non-compartmental methods with WinNonLin® (Enterprise version 5.1.1, 2006, Pharsight® Corp. Mountain View, Calif.).

B1: 16435 (antibody)
heavy: MEWTWRVLFLVAAATGAHSQVQLVQSGAEVKKPGASVKVSCKASGYTFTRYGISWVRQAPGQGLEWMGWISTYSGNTNYAQKLQGRVTMTTDTSTSTAYMELRSLRSDDTAVYYCARAQLYFDYWGQGTLVTVSSASTKGPSVFPLAPCSRSTSESTAALGCLVKDYFPEPVTVSWNSGALTSGVHTFPAVLQSSGLYSLSSVVTVPSSNFGTQTYTCNVDHKPSNTKVDKTVERKCCVECPPCPAPPVAGPSVFLFPPKPKDTLMISRTPEVTCVVVDVSHEDPEVQFNWYVDGVEVHNAKTKPREEQFNSTFRVVSVLTVVHQDWLNGKEYKCKVSNKGLPAPIEKTISKTKGQPREPQVYTLPPSREEMTKNQVSLTCLVKGFYPSDIAVEWESNGQPENNYKTTPPMLDSDGSFFLYSKLTVDKSRWQQGNVFSCSVMHEALHNHYTQKSLSLSPGK
light: EIVMTQSPATLSVSPGERATLSCRASQSVSSNLAWFQQKPGQAPRLLIYDASTRATGVPARFSGSGSGTEFTLTISSLQSEDFAVYYCQQYDNWPLTFGGGTKVEIKRTVAAPSVFIFPPSDEQLKSGTASVVCLLNNFYPREAKVQWKVDNALQSGNSQESVTEQDSKDSTYSLSSTLTLSKADYEKHKVYACEVTHQGLSSPVTKSFNRGEC
modifications: 16435 (LC: P66L, D90E)
Regarding B1, the DSC melting profile result in data set [1] was “most desirable melting profile, with a higher temperature for the secondary transition”. Moreover, the pharmacokinetic profile result in data set [2] was “did not show any significant abnormalities”.
